The source of these data is PubChem BioAssay AID488969 (Vanderbilt High Throughput Screening Facility, 2010).

Whole data set: some 110,000 compounds, median “z-score” near -0.1, cut for the highest 2% near 2. Some of the results follow. Active and inactive are the calls of the source.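 How the source made its calls: active means z-score in the third read window above 3 or below -3; inactive means the rest.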

This test concerns the target Metabotropic glutamate receptor 8 (Rattus norvegicus) (UniProt P70579). Put plainly: mGluR8 Gi/Go-coupled signaling modulation – cell-based, rat, thallium flux, HTS, primary screen (AID 488969). The settings on record: HEK293 rat mGluR8, GIRK (G protein-gated inwardly rectifying potassium channel) thallium flux, FluoZin2; at 10 µM; stronger effect = higher value; submaximal glutamate (EC20) added with thallium.
Chain of UniProt P70579 (P70579 whole entry, looked up): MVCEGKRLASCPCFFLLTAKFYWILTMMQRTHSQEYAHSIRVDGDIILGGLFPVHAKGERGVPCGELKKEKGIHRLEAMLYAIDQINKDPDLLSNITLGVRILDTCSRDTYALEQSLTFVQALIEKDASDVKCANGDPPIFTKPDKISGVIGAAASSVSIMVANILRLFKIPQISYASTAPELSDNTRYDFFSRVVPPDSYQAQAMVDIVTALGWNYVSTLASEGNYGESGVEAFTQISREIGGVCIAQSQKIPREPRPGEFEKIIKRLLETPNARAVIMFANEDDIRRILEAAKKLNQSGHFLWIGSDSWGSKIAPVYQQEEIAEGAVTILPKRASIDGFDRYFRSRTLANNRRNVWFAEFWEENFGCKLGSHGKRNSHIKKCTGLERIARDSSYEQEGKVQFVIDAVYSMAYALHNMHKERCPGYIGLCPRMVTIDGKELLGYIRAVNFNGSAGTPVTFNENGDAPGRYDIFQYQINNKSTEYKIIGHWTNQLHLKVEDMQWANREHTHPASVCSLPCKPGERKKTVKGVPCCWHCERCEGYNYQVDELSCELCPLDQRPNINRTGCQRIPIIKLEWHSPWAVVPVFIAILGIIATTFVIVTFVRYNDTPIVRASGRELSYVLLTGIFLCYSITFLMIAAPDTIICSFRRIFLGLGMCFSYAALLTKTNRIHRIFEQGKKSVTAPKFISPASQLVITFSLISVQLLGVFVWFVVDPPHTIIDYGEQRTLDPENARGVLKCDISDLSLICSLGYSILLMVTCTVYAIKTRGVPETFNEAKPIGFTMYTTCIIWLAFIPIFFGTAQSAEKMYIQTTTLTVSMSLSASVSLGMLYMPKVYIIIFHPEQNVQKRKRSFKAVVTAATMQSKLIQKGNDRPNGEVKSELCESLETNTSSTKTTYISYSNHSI
The compound `O=C(NC(=S)Nc1ccc(N2CCCCC2)c(Cl)c1)c1ccc2c(c1)OCCO2` came in with a z-score of 0.126.
Under `Cc1c(Cl)c([N+](=O)[O-])nn1CC(=O)N1CCc2ccccc2C1` stands -0.146; under `Cc1[nH]c(=O)[nH]c(=O)c1/C=N/NC(=O)[C@H](CC(C)C)NC(=O)OC(C)(C)C`, -0.0717.
For `CC(C)(C)c1ccc(C(=O)NC(=S)Nn2cnnc2)cc1`, the z-score was active: 3.11.
The figure for `CCNc1ccc(Br)cc(C(=O)/C=C/c2c(Cl)cccc2Cl)c1=O` is -0.226.
The figure for `COc1ccc(C(C)(C)C)cc1NC(=O)CCCn1c(=O)oc2ccccc21` is -0.276; for `CCc1nc2oc3cc(OC)ccc3c(=O)c2c(=O)n1Cc1ccccc1` it is -0.933.
The figure for `COc1ccc(-c2nc(-c3ccccc3)nc(N3CCN(C)CC3)c2C#N)cc1` is 0.041; for `Cc1nn2cnc3sc4c(c3c2nc1=O)CCCC4` it is -0.037; for `O=C(Nc1cccc(-c2cn3ccccc3n2)c1)c1cccs1` it is -0.698.
On to `N#C/C(=C\c1ccccc1C(F)(F)F)C(=O)Nc1ccccc1F`, for which the z-score was 0.00201.
Under `CCOC(=O)C(=O)Nc1ccccc1C(=O)Nc1ccc(OC)cc1` stands -0.261; under `COc1ccc(NC(=O)CC(C)(C)C)c([N+](=O)[O-])c1`, -0.0419; under `Cc1cc(C)c2cc(CN(CCN3CCCC3)C(=O)Nc3ccc(F)cc3)c(=O)[nH]c2c1`, 1.07.
Under `CN1CCN(c2ccccc2NC(=O)c2ccc(-c3ccc(Cl)cc3Cl)o2)CC1` stands -0.137; under `Cc1cccc(Nc2nc(-c3c(C)nc4ccccn34)cs2)c1`, -0.083; under `Cc1ccc(Nc2ncnc3nc[nH]c23)cc1Cl`, 0.0994.
The compound `O=C(CN(Cc1ccc2c(c1)OCO2)C(=O)CNS(=O)(=O)c1ccccc1)NCc1ccco1` registered a z-score of 0.0259.
`CC(C)CNC(=O)NC(=O)COc1ccc(C=O)cc1` had a z-score of 0.151.
Under `O=C(Cn1cc(SCc2ccc(F)cc2)c2ccccc21)N1CCOCC1` stands 0.648.
Under `CCn1c(SCC(=O)Nc2ncc(C(F)(F)F)cc2Cl)nnc1-c1ccccc1` stands -0.589; under `Cc1ccccc1C(=O)Nc1ccccn1`, 0.161; under `COc1cc2cc(C(c3nnnn3C(C)(C)C)N3CCc4ccccc43)c(=O)[nH]c2cc1OC` (stereo unspecified), 0.576.
Turning to `O=C(CN1C(=O)c2ccccc2S1(=O)=O)N1CCN(c2cccc(Cl)c2)CC1`, the z-score is -0.432.
The figure for `CCOc1ccc(CCNC(=O)Cn2c(=O)oc3ccccc32)cc1OCC` is -0.173; for `Cc1ccc(C(=O)N2CCOCC2)cc1[N+](=O)[O-]` it is -0.167; for `COC(=O)Cn1c(=NC(=O)C2COc3ccccc3O2)sc2cc(S(N)(=O)=O)ccc21` (stereo unspecified) it is -0.375.
Under `Cc1ccc(CNC(=O)CN2CCCC(C)C2)cc1` (stereo unspecified) stands -0.196; under `CS(=O)(=O)c1ccc(C(=O)NC2CCOC2=O)cc1` (stereo unspecified), 0.0914; under `C=CCn1c(CCNC(=O)c2cccs2)nnc1SCC(=O)Nc1cccc(F)c1`, -0.147.
The figure for `COCCOC(=O)c1[nH]c2c(c1C)C(=O)C(C(=O)OC)C(C)C2` (stereo unspecified) is 0.625.
For the compound `O=C(CSc1nc2sc3c(c2c(=O)n1-c1ccccc1)CCCC3)NCc1ccco1`, the z-score was -1.75.
The figure for `CC1=CC(=O)C(C(C)C)=C/C1=N/OC(=O)c1cccc([N+](=O)[O-])c1` is -0.12.
The figure for `CC(C)(C)OC(=O)N1CCC[C@H]1c1nnc(SCc2c(Cl)cccc2Cl)o1` is -0.145.
Under `O=C(NC(=S)Nc1nc2c(ccc3ccccc32)s1)c1cccs1` stands 2.78; under `CCOc1ccccc1C1N(c2ccc(OC)cc2)C(=O)C2CCCN21` (stereo unspecified), -0.342.
With `CC1(C)CC(=O)C2=C(C1)N(c1ccc(F)cc1)C(=O)C2(NC(=O)c1ccccc1F)C(F)(F)F` (stereo unspecified), the z-score was -0.00236.
The figure for `O=C1CCCN1CC(O)CS(=O)(=O)c1ccc(Cl)cc1` (stereo unspecified) is -0.78; for `CCCCCn1c(N)c(C#N)c2nc3ccccc3nc21` it is -0.278; for `CC(C)(C)c1ccc(C(=O)Nc2ccc([N+](=O)[O-])cn2)cc1` it is -0.401.
Under `CCCc1noc2c1/C(=N\O)CCC2` stands 0.447; under `Cn1c(SCC(=O)Nc2nc3c(s2)CCCC3)nnc1-c1ccccc1`, 0.228.
The figure for `CN(c1ccccc1)c1ccc(/C=N/N2CCOCC2)cc1` is -0.277.
The compound `Cc1ccc(C2C3=C(CCCC3=O)N=C3c4ccccc4C(=O)C32)cc1` (stereo unspecified) returned a z-score of -0.179.
The figure for `CC12CCC(c3c(CO)nn(-c4ccccc4)c31)C2(C)C` (stereo unspecified) is -0.228; for `Cc1ccccc1S(=O)(=O)Oc1ccccc1C(=O)Oc1ccccc1` it is -0.188; for `CSc1cc(-c2ccccc2)n(Cc2ccccc2Cl)c(=O)c1C#N` it is -0.122.
With `CC1(C)CC(=O)c2c(oc3cc(O)c(O)cc23)C1`, the z-score was -0.367.
Under `COc1ccc(CN2CC(C(=O)NCc3ccc4c(c3)OCO4)CC2=O)cc1` (stereo unspecified) stands 0.0327; under `COc1ccc(C)cc1-n1c(-c2ccncc2)n[nH]c1=S`, -0.139; under `COc1cccc(CN(C(=O)c2cc3ccccc3oc2=O)C2CC2)c1`, -0.0142.
The compound `Cc1cccc(-c2nnc(SCC#N)n2-c2cccc(Cl)c2)c1` registered a z-score of -0.285.
As to `COC(=O)CSc1nnc(C)n1-c1ccc(C)cc1`, the z-score was -0.293.
On to `c1coc(-c2nnc(NC3=NCCC3)o2)c1`, for which the z-score is 1.08.
The figure for `O=C(CNC(=O)c1ccco1)OCc1cccc(Cl)c1` is -0.219.
As to `COc1ccccc1CNC(=O)C1CCN(Cc2nc(-c3cccc(Cl)c3)oc2C)CC1`, the z-score is -0.328.
The figure for `CCCCCCn1c(=O)[nH]c2nc3cc(N)ccc3nc2c1=O` is 0.456; for `CCCC(=O)Nc1ccccc1-c1nnn(CC(=O)Nc2ccc(OCC)cc2)n1` it is -0.817; for `CN=Cc1c(NC)nc2c(C)cccn2c1=O` it is -0.43.
Under `Cc1cc(C)c(S(=O)(=O)NCCCn2ccnc2)c(C)c1` stands -0.0574.
Under `O=C(Nc1ncn[nH]1)c1cc(S(=O)(=O)Nc2ccc(Cl)cc2)ccc1Cl` stands -0.0295; under `CC(C)NC(=O)c1cc2ccccc2o1`, -0.495; under `Cc1nn(-c2ccccc2)c(Cl)c1/C=N\NC(=O)c1cncc(Br)c1`, -0.407.
On to `CC1(C)C2CC=C(/C=N/NC(=O)c3ccc(O)cc3)C1C2` (stereo unspecified), for which the z-score was -0.0642.
Compound `COc1cccc(CNc2nc3ccccc3n2CCN2CCCCC2)c1OC` showed a z-score of -0.28.
The figure for `COC(=O)c1cc2sccc2n1CC(=O)N1CCCc2ccccc21` is 2.64; for `CNc1cc(CSC)nc(SCc2ccc(Cl)c(Cl)c2)n1` it is 0.735.
The figure for `CN(C)CC(=O)Nc1cc(C(F)(F)F)ccc1Cl` is -0.783; for `CCOc1ccc(CCNC(=O)c2cccnc2N2CCCC2)cc1OCC` it is -0.219.
The compound `CC1CCCC2(C1)NC(=S)N(c1ccccc1)N2` (stereo unspecified) yielded a z-score of -0.757.
Under `CN(Cc1ccccc1)c1nc2c(c(=O)n(C)c(=O)n2C)n1CCCc1ccccc1` stands 1.89.
